Source: the RNAGym collection of RNA variant scans (doi:10.1093/nar/gkz1192)
The source gives no read counts; variants with many changes may rest on few reads.

B1: CPEB3 Ribozyme (parent)
chain: UAACAGGGGGCCACAGCAGAAGCGUUCACGUCGCAGCCCCUGUCAGAUUCUGGUGAAUCUGCGAAUUCUGCUGUAUAUCUC

Variants of: B1
Assay: self-cleavage, relative activity (ratio to wild type); higher = more cleavage; in vitro, sequencing
Method in brief: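 Relative activity was defined as the cleaved/total read fraction for a variant divided by the same fraction for the unmutated ribozyme. CPEB3 self-cleaving ribozyme libraries were made by rounds of error-prone PCR, barcoded, and transcribed in vitro with T7 RNA polymerase for 5 hours at 37°C, and cleavage ran through transcription plus a 15 min DNase I step before EDTA. Illumina sequencing of template-switched reverse transcripts gave the reads, and DNA sequencing mapped the barcodes. Averages come from three batches, using variants with at least 5 reads.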

Variant | self-cleavage
A3G U43A A57G | 0.99
A3U C23G U51C | 0.1
A3G G7A C37G A45U A47U | 0.06
A3G U69C U78C | 0.74
A3G G9U A35G U41C A45G | 1
A3G G22A A77G | 0.36
C4A A5G U72A | 0.35
A3G G9U U74C | 0
A3U A28C A56G | 0.59
A3U A57U U66C | 0.32
A3U U66C U67C | 0.34
A3U C17A A56U U80C | 0.09
C4A A5U U69A | 0.91
A3G U25C A45G U60C U72C G73U | 0.13
C4G A18G C62U | 0.29
A3G U26A U31C C38A U58G G61A | 0.08
A3G U26G U69C | 0.13
A3U A20G U41A U43C | 0.47
A3U A13G U54C | 0.4
A3G G9U A20G | 0.37
A3U A20U U31A A57G | 0.25
A3G G22U A57G U72C | 0.06
C4A A18G A35G U43C U78C | 0.62
A3G G19A U80A | 0.13

Variant | self-cleavage
A3U C4U C12U A18U A45G A64G | 0.48
A3G G22A U25C U43A U58C U74A | 0.08
A3U A21G A28U A77G | 0.75
A3G U58C U72G | 0.41
A3U A35U U43A A45G U58C | 0.25
C4A G7U A35C U58C | 0.28
C4A U31C A47G A56G | 0.53
A3G G10C C27U U66C | 0.34
A3U G42A U43A U76A U78C | 0.26
C4A A5G A20G U25C U26C U43C | 0.54
A3U G8U A13G | 0.43
A3G U60C U78A | 0.26
A3U U51C U78A | 0.98
A3U A45G U48C A64U U69C U76C | 0.15
A3G G10A A13G A35G U48C C79A | 0.61
A3G U31C A64G U72A G73U | 0.94
A3G G10C A15U U48C A64U | 0.13
A3G U26C C40U | 0.44
A3G G19U U54C | 0.36
A3U U31A U43A U51A A56G U69C U80C | 0.15
A3G G10A U25C U41C U49A | 0.08
A3G G22A G61A U76A U78A | 0.05
A3G U31C U43C A64G U80C | 0.04
A3U A5C A47U U58C | 0.32

Variant | self-cleavage
A3G G36A U51A A56G U66C | 0.33
C4A C11U C23U U48C U49C | 0.06
A3G G16A U51A U66C | 0.13
A3G U51C U72C | 0.87
A3U C14A A45G | 1.11
A3U A21G U51C A56G | 0.35
A3G G9A A21G U74C | 0.86
A3U A18G A20G A35G C40A | 0.16
A3U G9C A15G U31C U43C A77G | 0.11
A3U A13U U26A U58C U60A | 0.43
A3U U60A U66G U69C U72A | 0.41
A3U A5G U25A U49C U72C U78C | 0.1
C4A C11A G52A A56U A64U U72C | 0.09
A3U A13G A18U U54A A56U U69C U76A | 0.16
A3G C40A U58C U69C U72C | 0.34
A3U U26C C40G U69G U76C | 0.03
A3U C12G A28U U31C U69G | 0.16
A3U U25C A35U U60A C79A | 0.08
A3G G6U A21G | 0.29
A3G U26C U41A U51A U80C | 0.21
A3G G42A U67C | 0.11
A3G U54C A64U | 0.31
A3G C40U A77C | 0.63
A3G G33U U49C A57G | 0.09

Variant | self-cleavage
A3U U31C U51C | 0.97
A3G U25C G52A | 0.15
A3G G6U U49A | 0.14
A3G G24A G36U C38A A45G | 0.08
A3U C37U U54C | 0.42
A3U A5C G7C A20U U67C U69C U72G | 0
A3G G33C A75G | 0.23
C4G A45G G63A U66A | 0.34
A3G U41C A65C U72C U78A | 0.3
A3U U51C U69C | 0.67
C4A A21G U69A | 0.31
A3G U26C U66C U74C U80C | 0.03
A3U U54A U60C | 0.49
A3G U51C A77G | 1.15
A3G G9U A15G U41G U43C U76A | 0.13
A3U A15G A20G A21G U43A U69A | 0.09
A3G G6U G7U G9U A13G G33A | 0.12
A3G U31A C40U U51C A77G | 0.15
A3U C12A A13G A21U A28U A64G | 0.36
A3G G42A A45U | 0.57
A3U A35G U51A A57G U69A A77G | 1.08
A3G G8C U26A U49C G53U U80C | 0.74
A3G U31A A45U | 0.44
A3G G16C U25A G33A A64G | 0.11

Variant | self-cleavage
A3G U26G C29G U72G | 0.24
A3G U31G U49A U67C U69A | 0.14
A3G U41C U51A A64U | 0.38
A3G U72A G73A | 1.29
A3G U26C U31A | 0.36
C4G A15G C17G A35U G36A | 0.07
A3G U26C G30C | 0.49
A3U U31C A35G U54C U58C A64G | 0.18
A3U A20U U31A U76C | 0.11
A3G G6C U25A U31A C34A U41A | 0.35
C4G A20G A56G A64G U69C | 0.15
A3U C17U U26C | 0.31
A3U C14U U25C U48C | 0.38
A3G G24A U58G C71A | 0.05
A3G G6A C12G A28G | 0.34
A3U A35G U43C A65U | 0.29
A3G C44U A64U | 0.41
A3G U26C U41A A57G U78C | 0.21
A3G U60C A75C U78C | 0.36
C4G A18U U26A A28G U58C U66C | 0.08
A3U C32A C59G U67C | 0.08
A3U C23A A45C U72C | 0.3
A3U G33U A64G U69A | 0.11
A3U U25C A64G | 0.41

Variant | self-cleavage
A3G U41A C62U A77C | 0.12
A3G U25C A35G C38A U49C U60C | 0.07
A3G G16U A28G U43A | 0.12
C4A A56G U58A U60A | 0.39
A3U C12U A56G A57G U69C | 0.21
A3G U41A U54C | 0.5
A3U A13U C27A U51G U76A | 0.13
A3U G8C U26C U72C | 0.38
A3U A18U U26A C34G U54A | 0.13
A3G U26C U72A U78C U80C | 0.64
C4G A15U A35U U43A A47G U60A | 0.14
A3U A21C U60A U69C U72C U80C | 0.08
A3G U41A U43C U76A A77G | 0.38
A3G G8U U72C U78C | 0.11
A3G G6A A15U A47G U48A U60C A64U | 0.05
A3G U43G U69A | 0.13
A3G U26A G33A A35G U49A C50U U51C | 0.09
A3G U25A C38A U41C G52C | 0.16
A3U U31A A57U | 0.27
A3U A15U A35G | 1.23
A3G G19A A20U A45U | 0.14
C4A G9A C12U A15U U54C | 0.98
A3U A21G U69C | 0.34
C4A U26C U41A A57U | 0.27

Variant | self-cleavage
A3G G9U C12U A47U | 0.33
A3G G19A U31G U54A U72C | 0.11
A3G C62A U72A U78C | 0.32
A3G G8U A20U A45G | 0.33
A3G G8U A57G U72A | 0.08
A3G U49A U74C | 1.03
A3U U25C U51A G63A | 0.37
A3U U51A U80C | 0.99
A3G U41A U43C A56G | 0.3
A3G G22A U25C A35G C62U U74A | 0.1
A3U A20G U43C U66C | 0.17
A3U A13U U31C A64G | 0.91
A3U A35C U49A A64U | 0.1
A3G G7C A15G A21G A45G U72C A77U | 0
A3G G7A A28G U66C | 0.08
A3G U25C A64G | 0.25
A3G C40A U49C A64G G70A U76A | 0.14
A3G U26C G61A | 0.85
A3G U31C U58C A77G | 0.22
A3U G33U U60C U72A | 0.1
A3G U31C U60C U80C | 0.25
A3G U31C U43C A65G | 0.35
A3G U25G U41C A64G | 0.28
